{
  "source": "PubChem BioAssay AID904",
  "about": "(National Center for Advancing Translational Sciences (NCATS), 2007)",
  "note": "In all, about 55,000 compounds went through this assay and about 530 (0.96%) were called active. Inconclusive means that the source gave no clear call. Such entries were picked first, then a sample of the others. Calls follow the shape of the dose curve; as a rule, active = well fitted cell-killing curve with a large enough effect; inconclusive = small, poorly fitted or top-dose-only effect; inactive = no such curve, though single readings can be large or run the other way. Potencies beside an inconclusive call are fits to weak or partial responses and may not hold up. Potency is read from the fitted curve at half-maximal effect; tags tell the direction and shape of the fitted curve.",
  "data": [
    {"assay": "qHTS Screen for Compounds that Selectively Target Cancer Cells with p53 Mutations: Cytotoxicity of p53 Null Cells at the Nonpermissive Temperature; also: nearly all actives have a fitted effect of over 50% in size", "conditions": "H1299 p53-null (neo) cells, 39C, ATPlite viability, 24 h; series mostly up to 46.1 µM", "summary_of_the_method": "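H1299 lung cancer cells, p53-null (H1299-neo) or expressing p53 A138V (H1299-p53A138V), were plated overnight at 37C, then exposed to compounds at up to 46 uM for 24 hr at 39C. Viability was read by ATP-based luminescence.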", "values": [
      {"smiles": "COc1ccc(-c2noc(CSc3nnc(-c4ccncc4)n3-c3ccc(C)c(C)c3)n2)cc1", "Potency": "inconclusive: 0.398 µM [cytotoxic, full curve, poor fit]"},
      {"smiles": "COc1ccc(OC)c(CCNC(=O)c2cc3c(=O)n(C)c4ccccc4c3n2C)c1", "Potency": "inconclusive: 6.31 µM [cytotoxic, full curve, poor fit]"},
      {"smiles": "Cc1cc(SCC(=O)NCc2ccc(F)cc2)nc(=O)[nH]1", "Potency": "inconclusive: 0.794 µM [cytotoxic, full curve]"},
      {"smiles": "COc1cc(NC(=O)c2ncn(-c3ccccc3)n2)cc(OC)c1", "Potency": "inconclusive: 0.02 µM [cytotoxic, full curve, poor fit]"},
      {"smiles": "CCCN1C(C(=O)c2ccccc2)=C(OC(=O)c2ccc(C)cc2)c2ccccc2S1(=O)=O", "Potency": "inconclusive: 25.1 µM [cytotoxic, partial curve, poor fit]"},
      {"smiles": "Cc1ccc(NC(=O)Cn2c(=O)ccc3cc(S(=O)(=O)N4CCC(C)CC4)ccc32)cc1C", "Potency": "inactive"},
      {"smiles": "CCOc1ccc(NC(=O)CCS(=O)(=O)c2ccc(Br)cc2)cc1", "Potency": "inactive"},
      {"smiles": "Cc1ccc2c(c1)c(=O)c1ccccc1n2CCCC(=O)Nc1c(F)cccc1F", "Potency": "inactive"},
      {"smiles": "Cc1ccccc1Nc1c(-c2ccncc2)nc2ccc(Cl)cn12", "Potency": "inconclusive: 7.94 µM [cytotoxic, partial curve, poor fit]"},
      {"smiles": "O=C(c1ccc(CS(=O)c2ccccc2Cl)o1)N1CCN(c2cccc(Cl)c2)CC1", "note": "(configuration not stated)", "Potency": "inconclusive: 0.631 µM [cytotoxic, full curve]"},
      {"smiles": "O=C(CC1SC(=NC2CCCCC2)NC1=O)Nc1ccccc1", "note": "(configuration not stated)", "Potency": "inactive"},
      {"smiles": "Cc1ccc(CNC(=O)Cn2c(=O)n(-c3cccc(Cl)c3)c(=O)c3sc4ccccc4c32)cc1", "Potency": "inactive"},
      {"smiles": "Cc1cccc(NC(=O)Cc2csc(COc3cccc(C)c3)n2)c1", "Potency": "inactive"},
      {"smiles": "COc1ccc(NC(=O)/C=C\\C(=O)N(c2ccc(C(C)C)cc2)C(C(=O)NCc2ccco2)c2ccc(F)cc2)cc1", "note": "(configuration not stated)", "Potency": "inconclusive: 10 µM [cytotoxic, partial curve, poor fit]"},
      {"smiles": "CCn1cc(C(=O)NCCc2ccc(Cl)cc2)c(=O)c2cc(S(=O)(=O)N3CCC(C)CC3)ccc21", "Potency": "inconclusive: 3.98 µM [cytotoxic, full curve, poor fit]"},
      {"smiles": "O=C(NCC(c1ccc2c(c1)OCO2)N1CCOCC1)c1c(F)cccc1F", "note": "(configuration not stated)", "Potency": "inconclusive: 4.47 µM [cytotoxic, full curve, poor fit]"},
      {"smiles": "COc1ccc(N2CCN(C(=O)c3cc(S(=O)(=O)N4CCC(C)CC4)cn3C)CC2)cc1", "Potency": "inconclusive: 0.126 µM [cytotoxic, full curve, poor fit]"}
    ]}
  ]
}
